Screen size: about 360,000 compounds; about 16,000 (4.4%) were called active. The shares of active, inactive and inconclusive entries below differ from those in the screen. The call rests on the fitted dose curve; in most records, active means well fitted inhibition curve with a large enough effect; inconclusive means small, poorly fitted or top-dose-only effect; inactive means no such curve, though single readings can be large or run the other way. Potencies beside an inconclusive call are fits to weak or partial responses and may not hold up.
target: Bromodomain adjacent to zinc finger domain protein 2B (Homo sapiens) (UniProt Q9UIF8); test: qHTS Assay for Inhibitors of BAZ2B; conditions: AlphaScreen BAZ2B-H3K14Ac peptide displacement; series mostly up to 114 µM; further: nearly all actives have a fitted effect of over 60% in size
How it was run: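 In this displacement format the biotinylated H3(5-23) peptide acetylated at Lys14 serves as ligand at 50 nM, with BAZ2B at 50 nM in PBS pH 7.4 containing 0.01% Tween-20. Donor and acceptor beads are 10 ug/mL final.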
Potency means the concentration at half of the fitted maximal effect; tags describe the fitted curve by direction and shape.

Chain of UniProt Q9UIF8 (Q9UIF8 whole entry, looked up, the tested form may be a part): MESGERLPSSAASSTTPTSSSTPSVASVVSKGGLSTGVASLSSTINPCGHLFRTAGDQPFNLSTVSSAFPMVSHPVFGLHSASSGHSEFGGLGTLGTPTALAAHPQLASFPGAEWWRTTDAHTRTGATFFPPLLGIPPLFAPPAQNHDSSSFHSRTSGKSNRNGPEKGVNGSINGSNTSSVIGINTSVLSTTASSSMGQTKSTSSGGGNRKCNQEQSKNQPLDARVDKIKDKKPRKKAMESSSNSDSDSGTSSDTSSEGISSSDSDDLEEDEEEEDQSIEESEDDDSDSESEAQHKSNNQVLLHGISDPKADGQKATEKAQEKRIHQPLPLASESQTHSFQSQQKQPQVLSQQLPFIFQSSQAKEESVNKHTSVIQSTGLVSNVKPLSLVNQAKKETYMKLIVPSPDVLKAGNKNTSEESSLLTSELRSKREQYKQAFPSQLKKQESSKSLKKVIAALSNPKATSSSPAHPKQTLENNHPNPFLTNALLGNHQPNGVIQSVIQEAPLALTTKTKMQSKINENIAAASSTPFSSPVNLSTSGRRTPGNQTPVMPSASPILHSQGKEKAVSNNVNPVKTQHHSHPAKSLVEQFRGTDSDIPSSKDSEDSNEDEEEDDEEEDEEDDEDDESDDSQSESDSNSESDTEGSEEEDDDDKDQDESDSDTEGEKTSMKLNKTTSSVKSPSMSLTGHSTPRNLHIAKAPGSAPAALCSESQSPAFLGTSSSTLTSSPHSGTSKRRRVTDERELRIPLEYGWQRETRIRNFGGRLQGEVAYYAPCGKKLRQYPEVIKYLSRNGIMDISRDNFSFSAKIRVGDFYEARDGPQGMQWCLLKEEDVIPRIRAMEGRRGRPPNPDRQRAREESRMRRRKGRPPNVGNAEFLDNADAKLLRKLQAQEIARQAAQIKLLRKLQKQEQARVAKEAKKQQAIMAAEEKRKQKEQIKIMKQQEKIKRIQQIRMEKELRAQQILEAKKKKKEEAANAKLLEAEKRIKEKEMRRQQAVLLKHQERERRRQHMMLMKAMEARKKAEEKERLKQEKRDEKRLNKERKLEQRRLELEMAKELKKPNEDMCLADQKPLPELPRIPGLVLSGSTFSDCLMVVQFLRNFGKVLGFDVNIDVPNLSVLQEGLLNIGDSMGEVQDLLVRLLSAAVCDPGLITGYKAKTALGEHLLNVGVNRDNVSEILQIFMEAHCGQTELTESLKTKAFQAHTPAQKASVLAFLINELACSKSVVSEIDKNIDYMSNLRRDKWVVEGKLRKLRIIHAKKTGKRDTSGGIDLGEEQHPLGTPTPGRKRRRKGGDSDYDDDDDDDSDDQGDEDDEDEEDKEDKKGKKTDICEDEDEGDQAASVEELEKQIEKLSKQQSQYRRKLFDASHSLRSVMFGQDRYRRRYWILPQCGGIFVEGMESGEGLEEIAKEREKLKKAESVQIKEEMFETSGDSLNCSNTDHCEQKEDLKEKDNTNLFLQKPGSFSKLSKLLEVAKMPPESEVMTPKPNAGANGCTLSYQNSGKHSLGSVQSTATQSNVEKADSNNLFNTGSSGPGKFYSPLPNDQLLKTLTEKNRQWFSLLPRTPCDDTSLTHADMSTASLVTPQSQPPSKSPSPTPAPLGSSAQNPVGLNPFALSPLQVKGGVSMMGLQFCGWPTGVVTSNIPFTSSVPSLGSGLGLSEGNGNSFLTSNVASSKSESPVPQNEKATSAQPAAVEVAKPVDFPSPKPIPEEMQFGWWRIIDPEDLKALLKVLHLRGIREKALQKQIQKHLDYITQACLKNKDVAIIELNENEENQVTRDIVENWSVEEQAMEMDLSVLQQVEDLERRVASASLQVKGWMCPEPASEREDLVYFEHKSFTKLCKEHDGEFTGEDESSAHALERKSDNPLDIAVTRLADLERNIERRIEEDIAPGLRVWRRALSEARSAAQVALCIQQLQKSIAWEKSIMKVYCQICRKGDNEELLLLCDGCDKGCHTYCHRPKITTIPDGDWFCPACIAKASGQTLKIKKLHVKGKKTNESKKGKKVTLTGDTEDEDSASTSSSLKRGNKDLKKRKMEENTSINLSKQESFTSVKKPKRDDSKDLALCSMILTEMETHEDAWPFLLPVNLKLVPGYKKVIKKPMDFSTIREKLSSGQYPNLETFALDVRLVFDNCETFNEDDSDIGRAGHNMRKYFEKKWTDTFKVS

SMILES	Potency
COc1ccc(N2CCN(C(=O)CSc3ncccc3-c3nc4ccccc4[nH]3)CC2)cc1	inconclusive: 35.5 µM [inhibitor, partial curve]
NS(=O)(=O)c1ccc(N/N=C/c2ccc(O)cc2O)c([N+](=O)[O-])c1	inconclusive: 89.1 µM [inhibitor, partial curve]
Cc1ccc2cccnc2c1N	inconclusive: 79.4 µM [inhibitor, single point]
NC(=O)N1c2ccccc2C=Cc2ccccc21	inactive
CNCCOc1ccccc1-c1ccccc1	inconclusive: 89.1 µM [inhibitor, single point]
CSc1ccccc1C(=O)NCCCn1ccnc1	inconclusive: 89.1 µM [inhibitor, single point]
COc1ccccc1CN1C[C@@H]2C[C@@H](c3cccc(O)c3)N3CCC[C@@]23C1=O	inactive
Cc1ccc(Cl)c(NC(=S)N(CCCN2CCOCC2)Cc2ccco2)c1	inconclusive: 100 µM [inhibitor, single point]
CCOC(=O)C1CCCN(Cc2cccc(Cl)c2)C1 (stereo not given)	inconclusive: 89.1 µM [inhibitor, single point]
Cc1ccc(C(=O)N/C(=C\c2cccs2)C(=O)NCCCn2ccnc2)cc1C	active: 50.1 µM
Cc1cc(C)n(-c2nnc(NCc3ccc(Cl)cc3)nn2)n1	inconclusive: 31.6 µM [inhibitor, full curve]
Oc1ccccc1-c1cncn1Cc1ccccc1	inactive
Cc1cccnc1NC(=O)CN1C(=O)COc2ccc(Cl)cc21	active: 56.2 µM
Cc1ccc(CN2CCN(/N=C/c3cccn3C)CC2)c(C)c1	active: 50.1 µM
COc1ccc(NC(=S)Nc2cccc3ccccc23)cc1OC	inconclusive: 44.7 µM [inhibitor, partial curve]
O=C(Cn1cnc2sc(-c3ccccc3)cc2c1=O)NCc1ccco1	inconclusive: 89.1 µM [inhibitor, single point]
O=C1Nc2ccccc2/C1=N/c1sc2c(c1C(=O)NCCc1ccccc1)CCCC2	inconclusive: 7.94 µM [inhibitor, full curve, poor fit]
CN1C(=O)/C(=C/c2ccc(OCc3ccc(F)cc3)cc2)NC1=S	inconclusive: 89.1 µM [inhibitor, single point]
Cc1ccc(C(=O)Nc2cc3[nH]c(=O)oc3cc2C)cc1	inactive
COc1cccc(-c2cc(C(=O)NCCCn3ccnc3)no2)c1	inconclusive: 70.8 µM [inhibitor, single point]
Cc1ccc2c(CC(=O)N(Cc3ccc(N(C)C)cc3)Cc3ccco3)coc2c1C	active: 8.91 µM
Cc1ccc2oc(-c3ccc(C)c(NC(=O)/C=C/c4ccco4)c3)nc2c1	inconclusive: 89.1 µM [inhibitor, single point]
COc1ccccc1C(=O)N/C(=C\c1cn(S(=O)(=O)N(C)C)c2ccccc12)C(=O)N1CCCC1	inconclusive: 79.4 µM [inhibitor, partial curve]

SMILES	Potency
Cc1cc(C)n2nc(CNC(=O)c3ccc(Cl)cc3)nc2n1	inactive
Cc1ccccc1S(=O)(=O)N1[C@@H](c2ccccc2)C(C(=O)O)=CC[C@H]1c1ccc(Cl)cc1	inactive
CCCCc1cc(=O)oc2cc(OCC(=O)N[C@@H](Cc3ccccc3)C(=O)O)ccc12	inconclusive: 89.1 µM [inhibitor, single point]
Cc1noc(NS(=O)(=O)c2ccc(NC(=O)c3cc(-c4ccccc4Cl)nc4ccccc34)cc2)c1C	inconclusive: 50.1 µM [inhibitor, partial curve]
COc1cc(/C=C/c2ccc3cccc(O)c3n2)cc(OC)c1OC	inactive
COc1cccc(NC(=S)N(CCc2c(C)[nH]c3ccccc23)Cc2ccco2)c1	inconclusive: 35.5 µM [inhibitor, partial curve]
COc1cccc(OC)c1OCCCCN1CCCC1	inconclusive: 89.1 µM [inhibitor, single point]
CN(C)CCCN=c1cc(-c2ccccc2)oc2ccc(Cl)cc12	inconclusive: 44.7 µM [inhibitor, partial curve]
N#Cc1c(-n2cccc2/C=N/O)sc2c1CCCC2	active: 44.7 µM
CCCCNc1c(-c2cccc(-c3ccc(OC)cc3)c2)nc2ccc(C)cn12	active: 44.7 µM
CN1C(=O)CC(c2cn(Cc3ccccc3)c3ccccc23)C1=O (stereo not given)	inconclusive: 44.7 µM [inhibitor, partial curve]
CCc1cc2c(SCC(=O)N3CC(=O)Nc4ccccc43)ncnc2s1	inactive
CCOc1ccc(CNC(=O)Cn2c(=O)c3cccn3c3cccnc32)cc1	inactive
Oc1ccc(N2CCN(c3ncnc4sc5c(c34)CCC5)CC2)cc1	inconclusive: 25.1 µM [inhibitor, full curve]
O=C(NC(=S)Nc1ccc2ncccc2c1)c1ccccc1	inconclusive: 63.1 µM [inhibitor, partial curve, poor fit]
CCCn1c(C(C)Nc2nc(-c3ccc(Cl)c([N+](=O)[O-])c3)cs2)nc2ccccc21 (stereo not given)	inconclusive: 39.8 µM [inhibitor, partial curve]
COC(=O)[C@H](Cc1c[nH]c2ccccc12)NC(=O)NCc1ccc(OC)cc1	inactive
CCN1CCN(c2ccc(NC(=O)c3ccc4c(c3)[nH]c(=O)n4Cc3ccc(F)cc3)cc2)CC1	inconclusive: 50.1 µM [inhibitor, partial curve]
CSc1nc2[nH]c3c(c2c2nnnn12)CCCC3	inconclusive: 50.1 µM [inhibitor, partial curve]
C/C(CCC(=O)O)=N/Nc1ccc([N+](=O)[O-])cc1[N+](=O)[O-]	inconclusive: 44.7 µM [inhibitor, partial curve]
C=CCn1c(O)c(N=NC(=S)Nc2ccc(OC)cc2)c2ccccc21	inconclusive: 8.91 µM [inhibitor, full curve]
COc1ccccc1C(=O)NC(CCSC)C(=O)N1CCC(Cc2ccccc2)CC1 (stereo not given)	inconclusive: 89.1 µM [inhibitor, single point]
